# The full ranking holds about 33,000 sequences; the median of “E-score (-0.5 to 0.5)” is about -0.043, and the highest 2% start at about 0.37. This is one part of the list.
# Target: T1, Upc2 (UniProt Q12151)
# T1 sequence: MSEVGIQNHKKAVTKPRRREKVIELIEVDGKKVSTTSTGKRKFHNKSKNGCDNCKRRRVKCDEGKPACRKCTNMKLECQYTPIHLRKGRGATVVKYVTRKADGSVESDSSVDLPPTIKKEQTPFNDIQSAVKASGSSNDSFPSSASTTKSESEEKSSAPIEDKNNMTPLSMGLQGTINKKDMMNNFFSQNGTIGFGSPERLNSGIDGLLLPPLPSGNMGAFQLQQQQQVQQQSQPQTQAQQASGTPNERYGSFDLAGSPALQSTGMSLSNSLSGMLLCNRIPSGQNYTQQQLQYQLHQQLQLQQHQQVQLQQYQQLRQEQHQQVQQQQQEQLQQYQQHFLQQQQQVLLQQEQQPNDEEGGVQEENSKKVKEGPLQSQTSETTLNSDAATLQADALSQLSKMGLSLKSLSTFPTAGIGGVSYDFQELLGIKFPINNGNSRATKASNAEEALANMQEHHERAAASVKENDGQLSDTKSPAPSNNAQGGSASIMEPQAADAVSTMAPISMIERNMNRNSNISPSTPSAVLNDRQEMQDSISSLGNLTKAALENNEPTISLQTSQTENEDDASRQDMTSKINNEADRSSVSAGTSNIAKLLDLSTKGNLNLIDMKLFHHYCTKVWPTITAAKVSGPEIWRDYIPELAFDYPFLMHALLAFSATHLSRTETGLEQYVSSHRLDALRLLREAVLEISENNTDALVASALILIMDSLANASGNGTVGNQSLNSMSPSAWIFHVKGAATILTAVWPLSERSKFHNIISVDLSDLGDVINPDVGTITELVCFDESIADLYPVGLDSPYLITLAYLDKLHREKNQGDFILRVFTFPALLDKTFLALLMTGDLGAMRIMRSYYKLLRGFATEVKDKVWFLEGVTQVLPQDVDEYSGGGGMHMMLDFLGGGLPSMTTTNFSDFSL
# Assay: PBM E-score (8-mer binding enrichment) (E-score (-0.5 to 0.5)); higher = stronger / more preferred TF binding; most listed sequences are background and not binding sites
# Conditions: protein concentration: 200 nM; construct: GST-full length
# Protocol: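 Universal 'all 10-mer' protein binding microarrays (Agilent AMADID 015681) probed with GST-tagged S. cerevisiae TFs (full-length or DBD) made by in vitro transcription/translation (PURExpress), about 100-200 nM. Bound TF was detected with fluorescent anti-GST. Each ungapped 8-mer (which stands for itself and its reverse complement) is scored by the PBM enrichment score (E-score), a modified Wilcoxon-Mann-Whitney statistic from -0.5 to +0.5, computed with the Universal PBM Analysis Suite. Scale: above 0.35 generally sequence-specific binding.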
row,Sequence,PBM E-score
1,GGTAGGAC,-0.2
2,ATATTAGC,0.114
3,ATAGCGGC,0.181
4,CCTAGCAC,-0.0773
5,AATGACAC,-0.062
6,CATAGAGA,-0.247
7,CCGGACAG,-0.0604
8,ACCACCGC,-0.0688
9,CAATTACA,-0.0274
10,AATGGCAA,-0.0905
11,AGACGCTA,-0.18
12,CCCGCCTC,-0.099
13,CCCGGAAG,-0.248
14,TAGCAAGA,-0.198
15,ATTTGGAC,-0.108
16,GCTACTAC,-0.00529
17,CGGTCATA,0.0905
18,AAGCACGT,-0.00226
19,TACAATGA,-0.0508
20,GGTGAGGA,0.0704
21,CTAAATAA,0.195
22,GCAATCAA,-0.205
23,CCGCGACA,-0.0122
24,ATTACCCC,-0.0985
25,AGCCCGGG,-0.251

row,Sequence,PBM E-score
1,AATCGCCC,-0.158
2,AGGATCAT,-0.0772
3,GCGGGGTA,-0.00335
4,TCGGACGA,-0.0442
5,ACTAAAAT,0.113
6,AGCAACTG,-0.129
7,CTATTCCA,-0.206
8,AATCCAGA,-0.1
9,ATGCGGCG,0.134
10,GTCCTGAA,-0.0301
11,AACTCGTG,0.178
12,AAACTGTT,-0.0522
13,CTGGACAC,-0.212
14,AACATTCT,0.0423
15,CAGAAGAA,-0.176
16,AAGTGGAC,-0.173
17,ATAGTGAG,-0.17
18,CACATGCA,-0.223
19,CCCTGTCG,0.035
20,AGCCTAAA,-0.0412
21,ATCAGGTA,-0.14
22,CACCATGG,-0.185
23,GTAATCTA,0.0648
24,ACGCGCTC,0.189
25,ATCTACAA,-0.0666

row,Sequence,PBM E-score
1,ACATGCGC,-0.0616
2,AAGGGGAC,-0.102
3,TGCTATAA,-0.235
4,AATAAATT,0.112
5,AGCTTCAC,-0.0326
6,CTTATTCC,-0.321
7,CGGCGACC,-0.13
8,TACCTGGA,0.0724
9,AAAAGATC,0.0413
10,TGAAGTAA,-0.103
11,ACTTAACC,-0.0376
12,GAGCTCCC,0.0615
13,ATCAGGAG,-0.0081
14,AGCGCCAC,-0.0209
15,GTAGATCA,-0.0484
16,GAGATAAC,-0.0825
17,GTAAGTAA,0.038
18,CGAGTAGC,0.147
19,ATACAGAC,0.199
20,ATAGAGAC,-0.0831
21,GTAGGCTA,0.0529
22,ATACAACA,0.0455
23,ACAAACGG,0.328
24,AGAGCTCC,-0.157
25,ACTCACTA,-0.0131

row,Sequence,PBM E-score
1,ATCGGCAG,-0.21
2,GACAACGA,0.193
3,ATCAATAC,0.15
4,GAGATGCC,0.00372
5,CCCTTATC,-0.205
6,TAGGTCGA,0.00219
7,CTGTGAAC,0.0799
8,CTTTAGCC,-0.0131
9,GGCCCCTA,-0.217
10,CATCGTGA,0.0225
11,ATAGTGGA,-0.11
12,CGTTCGTC,0.293
13,ACGGCTAC,0.257
14,CCGGACCC,0.0459
15,CAGTTAAG,-0.0502
16,AAGGACGC,-0.174
17,ATGAAAAA,-0.0342
18,AGTTTCAG,-0.0861
19,ACCGGTCT,-0.347
20,AAGTGGGT,-0.0744
21,AAGCGCGT,0.183
22,AAGAGTAG,-0.128
23,ACATTCGC,-0.0105
24,ACCAACGT,0.0806
25,CGTGAAGC,-0.142

row,Sequence,PBM E-score
1,TGAGGAAA,-0.136
2,AATGGCCG,-0.154
3,ATATCGTG,0.0382
4,AAGGAACA,-0.083
5,GAAGTGCC,-0.085
6,CGCACATC,0.0941
7,CTCTCGTC,0.0223
8,TATGCATA,-0.167
9,CTCAGAGA,-0.141
10,TGGTTAAA,0.127
11,ACTTTCCA,-0.124
12,CATTTAGA,-0.0343
13,GGGATTAC,-0.0652
14,GTCATCCA,-0.265
15,ATTCGGCC,-0.198
16,ATAATTAT,0.245
17,CCTCTACC,-0.273
18,ACCTTTCT,0.0204
19,ATAAATGC,-0.113
20,CTTGTGCC,-0.19
21,GTGAATAA,-0.0516
22,ATGCTTTG,-0.132
23,AGGACCCT,-0.191
24,CGTAAAAA,0.404
25,AGACACAA,-0.178

row,Sequence,PBM E-score
1,CTCACGGA,-0.0687
2,ATTGGGAC,-0.218
3,ACACTGCC,-0.0405
4,ACAGAGGG,-0.233
5,ATTGTATC,-0.2
6,ATCAACCG,-0.0127
7,CCCCAGGC,-0.391
8,GATACCAC,-0.0967
9,ACGAGCTC,0.404
10,TGTCTGAA,-0.0557
11,ACGCGAGT,0.195
12,CATAGCAG,-0.264
13,GGTCGACA,-0.00508
14,AGATATAG,0.0375
15,AGGTCTAG,0.0781
16,AAGCAAAC,0.206
17,AAGCTTCT,0.0126
18,AGTTTTCA,-0.0402
19,AGGATGGG,0.00396
20,ATAGTGTA,-0.0666
21,GGGATACC,-0.152
22,CACAAGAA,-0.119
23,AACTCAGC,-0.133
24,CGTAGGGA,-0.0318
25,CAATGAAA,-0.12

row,Sequence,PBM E-score
1,AGTAACCG,0.124
2,CGTTGGAA,-0.0293
3,AACATTGC,-0.0421
4,CCTCCCCA,-0.137
5,AGCAAGGG,-0.167
6,GAGCCGGA,-0.147
7,AAAGAACG,0.207
8,CTTTGTAA,0.029
9,AACGTACC,0.256
10,ACCATTCC,-0.107
11,ACGGACAG,0.103
12,AGAGTATC,0.173
13,GGCTTACA,-0.162
14,TACGTATA,0.423
15,AAGGGACA,-0.223
16,GGATGGCA,0.0444
17,GGGGCGAA,-0.258
18,AACACAAC,0.109
19,AAAGCAAT,-0.0118
20,TGTCCTAA,0.0981
21,AAATACCA,-0.0252
22,GAAGCTAC,0.0814

# From the supplement of paper PMC3334620
